Laboratory results reported in the supplement of paper PMC3334620.
In all, about 33,000 sequences were measured (“E-score (-0.5 to 0.5)”: median about -0.054, highest 2% from about 0.35 on). This is one part of the list.

molecular target: T1, Stb5 (UniProt P38699); test: PBM E-score (8-mer binding enrichment) (E-score (-0.5 to 0.5)); higher = stronger / more preferred TF binding; most listed sequences are background and not binding sites; conditions: protein concentration: 200 nM; construct: GST-full length
T1 sequence: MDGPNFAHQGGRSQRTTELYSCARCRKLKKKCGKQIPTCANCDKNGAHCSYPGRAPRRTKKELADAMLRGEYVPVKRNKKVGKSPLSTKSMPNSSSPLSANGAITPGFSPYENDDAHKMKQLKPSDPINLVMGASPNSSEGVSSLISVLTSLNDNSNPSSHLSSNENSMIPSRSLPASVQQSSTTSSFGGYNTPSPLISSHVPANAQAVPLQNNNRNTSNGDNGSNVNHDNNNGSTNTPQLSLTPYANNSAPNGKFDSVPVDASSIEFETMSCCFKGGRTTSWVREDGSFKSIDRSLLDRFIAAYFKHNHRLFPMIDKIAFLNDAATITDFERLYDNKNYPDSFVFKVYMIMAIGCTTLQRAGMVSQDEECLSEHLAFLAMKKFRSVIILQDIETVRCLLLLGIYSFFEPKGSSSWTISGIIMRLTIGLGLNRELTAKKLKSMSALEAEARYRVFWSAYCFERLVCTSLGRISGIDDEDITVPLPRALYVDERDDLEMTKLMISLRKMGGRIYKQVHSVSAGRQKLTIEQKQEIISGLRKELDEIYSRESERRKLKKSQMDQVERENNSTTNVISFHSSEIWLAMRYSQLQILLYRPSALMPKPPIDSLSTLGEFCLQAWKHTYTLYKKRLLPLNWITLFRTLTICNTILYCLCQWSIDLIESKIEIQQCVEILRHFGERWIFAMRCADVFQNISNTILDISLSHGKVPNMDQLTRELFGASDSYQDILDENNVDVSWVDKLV
Outline: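 Yeast transcription factors carrying a GST tag, as full-length proteins or DNA-binding domains, were produced by PURExpress in vitro transcription/translation. About 100-200 nM protein was applied to universal all-10-mer Agilent arrays, double-stranded by primer extension on fresh or once-stripped slides. Bound protein was detected with fluorescent anti-GST, and scans were normalised with masliner. The Universal PBM Analysis Suite gave each ungapped eight-base word, pooled with its reverse complement, an E-score, a modified Wilcoxon-Mann-Whitney statistic.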

Sequence | PBM E-score
CGGGGACA | 0.415
AAAATCCG | 0.345
ATACTATA | 0.146
AAAATCGA | -0.207
GCGTCTGA | -0.0757
CTGAGGCA | -0.316
AACGATAT | -0.176
CGATGCGC | 0.0858
CGTAAAAG | 0.0294
CAACTCAA | -0.0921
CACGAGAG | -0.108
AATGGGAT | -0.00508
TCAGCTAA | -0.245
CTAATCTC | 0.0426
GACCTGAA | -0.0099
CGCATGTC | 0.0499
GATACATA | -0.0598
CGGAACCG | 0.107
CCTTCCCC | -0.152
CGTAACCA | -0.283
ACACCAGA | -0.0876
CCAAGGGC | -0.152
AAACGTTA | -0.0679
CGGTTTAC | 0.058
CGATCTCC | 0.0163

Sequence | PBM E-score
TTTAGAAA | -0.066
AGTCCTGA | -0.134
GCTCTATA | 0.132
AATGGACT | -0.127
CTGACTGA | -0.259
AAAGTGGG | -0.015
AATTATAT | 0.158
AGAACAAA | 0.207
CGCGCGAG | 0.108
CAGCTAGC | -0.0953
ACATGCAG | -0.0832
CTACCGAG | 0.107
CTTTAATA | 0.244
CGTCGAAC | -0.0581
AGACAAAC | 0.0348
CTAGTGGC | -0.191
AATAGGCC | 0.115
AACAGGTA | -0.0862
ATGAGGTC | -0.171
AGTGGTCA | -0.31
CAAACGAA | -0.241
CCACCCGG | 0.0156
AACAAACT | -0.169
ACTCAAAG | -0.193
CCTCGACC | -0.205

Sequence | PBM E-score
CTCAGCGA | -0.139
AGCAAGCC | -0.274
CCGGATGA | 0.0663
AAGCGTGA | -0.16
ACCTGGAT | -0.183
TATCGATA | -0.173
AGCCTAAG | -0.0395
ACGCGTAT | -0.0753
GGAGTAGA | 0.0616
ATCGACAG | -0.242
GTTGTCTA | -0.114
CACACAGA | -0.277
AACCTATA | -0.0161
AGCTGGTC | -0.26
CGTCTAAG | 0.0962
CCAAGACG | -0.0773
ACTGTCCA | -0.137
CTTGTCGA | -0.254
CAGTTCCG | 0.0961
AAATTTGG | -0.253
ATGAGTCC | 0.2
ATAAGCGC | 0.181
AGAGCCAT | -0.197
GCCAGTCC | 0.0393
CTGCACTC | -0.0352

Sequence | PBM E-score
AGACCCCG | 0.394
AATGAGGG | -0.167
GACAAAGC | -0.06
CTTGCACA | -0.225
CCCACGTC | -0.0947
CGCGGCAG | 0.212
ACTGTTTC | -0.0587
ACCTATCT | -0.112
AGCCCGAC | 0.373
GATCGAGC | -0.0559
GACCCCTA | -0.323
ATGAGGCG | 0.0355
ATCGGTTG | 0.0401
ACGATAGT | -0.274
CTGGGGGC | -0.245
AGCAATGA | -0.131
GGAGTTCA | 0.00589
TGATCACA | -0.168
AGCAACGG | 0.203
CGAATTCA | 0.097
CTGGATCA | -0.169
AAATGGCG | 0.0944
CCTACGTA | -0.0656
CGGCAATA | 0.454
TAGAACTA | -0.123

Sequence | PBM E-score
AGCCAGGC | -0.243
AAATGTCG | 0.041
AGCCAAAT | 0.0567
CCGTCTGC | 0.299
ACAACGAG | -0.139
ATGCGGTA | 0.243
TATTACAA | 0.057
CAGTCACA | -0.419
CTAGGGGA | -0.201
AATCTCAT | -0.11
CTGGTGTC | -0.178
CTCGACAG | -0.164
AAGGAGCA | -0.308
CACAATCC | 0.0404
ATTTTTAG | 0.0427
ACTCACGA | -0.136
CCAAACTA | -0.236
GAGCTGCC | -0.148
CGGAAAGA | 0.095
AACGAACT | -0.105
TCGTCGCA | -0.0479
CCATAACC | -0.0919
GACACTGC | -0.204
GTAGTCGA | -0.218
AGTACATG | -0.108

Sequence | PBM E-score
ACCTGACA | -0.145
GGGTGTAC | 0.165
ATTACTGG | -0.297
ACTATGTG | -0.0619
CCCAGTCA | -0.177
CCGGATCC | 0.182
AAGGGAGC | -0.334
ACCTGAAA | -0.098
ACTTCCGG | 0.181
CAGCGGTC | 0.315
GATAAAGC | 0.201
AAGCATGT | -0.12
AGCCGGTG | 0.295
CTCGCAGA | -0.323
ATCCTACC | -0.0474
ACGTCCAT | -0.165
AGGTGATC | -0.112
GAGGGTAC | -0.231
ACTAATGA | -0.0625
GGAATTGA | -0.048
ACGTATTA | 0.0993
GGGTTACA | 0.174
CACTCGTA | -0.177
TCCGCTCA | 0.234
ATTGAAAC | -0.0827

Sequence | PBM E-score
GCACCTTA | 0.0235
CAGGATTC | -0.199
CGCGAAGC | 0.108
CGGCCACG | 0.0244
CGATCACG | 0.0934
ACAGTCTC | -0.206
AGCGCAGG | 0.0159
ACTTAGAG | -0.25
CGGACTAC | 0.119
CAGCAGGC | -0.0497
CCACAGGG | -0.203
CTGGCGAA | -0.147
AAGTCGAG | -0.211
AGAAGGTA | -0.11
AGTTGAGC | -0.218
CGTGGTCC | -0.0676
CCTATGAC | 0.00317
GGAGTTAA | 0.398
ATCAGTGA | -0.179
AAAATGCT | -0.0926
CGATGTCC | 0.222
TACCTCTA | -0.209
